Data: PubChem BioAssay AID488969 (Vanderbilt High Throughput Screening Facility, 2010)
The full ranking holds about 110,000 compounds; the median of “z-score” is about -0.1, and the highest 2% start at about 2. The list shows a part of the results. Calls of active or inactive are those of the source.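 Rule for the calls: active = z-score in the third read window above 3 or below -3; inactive = the rest.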

Each molecule was assayed against Metabotropic glutamate receptor 8 (Rattus norvegicus) (UniProt P70579) (assay: mGluR8 Gi/Go-coupled signaling modulation – cell-based, rat, thallium flux, HTS, primary screen (AID 488969)). Conditions: HEK293 rat mGluR8, GIRK (G protein-gated inwardly rectifying potassium channel) thallium flux, FluoZin2; at 10 µM; stronger effect = higher value; submaximal glutamate (EC20) added with thallium.
Sequence of UniProt P70579 (P70579 whole entry, looked up): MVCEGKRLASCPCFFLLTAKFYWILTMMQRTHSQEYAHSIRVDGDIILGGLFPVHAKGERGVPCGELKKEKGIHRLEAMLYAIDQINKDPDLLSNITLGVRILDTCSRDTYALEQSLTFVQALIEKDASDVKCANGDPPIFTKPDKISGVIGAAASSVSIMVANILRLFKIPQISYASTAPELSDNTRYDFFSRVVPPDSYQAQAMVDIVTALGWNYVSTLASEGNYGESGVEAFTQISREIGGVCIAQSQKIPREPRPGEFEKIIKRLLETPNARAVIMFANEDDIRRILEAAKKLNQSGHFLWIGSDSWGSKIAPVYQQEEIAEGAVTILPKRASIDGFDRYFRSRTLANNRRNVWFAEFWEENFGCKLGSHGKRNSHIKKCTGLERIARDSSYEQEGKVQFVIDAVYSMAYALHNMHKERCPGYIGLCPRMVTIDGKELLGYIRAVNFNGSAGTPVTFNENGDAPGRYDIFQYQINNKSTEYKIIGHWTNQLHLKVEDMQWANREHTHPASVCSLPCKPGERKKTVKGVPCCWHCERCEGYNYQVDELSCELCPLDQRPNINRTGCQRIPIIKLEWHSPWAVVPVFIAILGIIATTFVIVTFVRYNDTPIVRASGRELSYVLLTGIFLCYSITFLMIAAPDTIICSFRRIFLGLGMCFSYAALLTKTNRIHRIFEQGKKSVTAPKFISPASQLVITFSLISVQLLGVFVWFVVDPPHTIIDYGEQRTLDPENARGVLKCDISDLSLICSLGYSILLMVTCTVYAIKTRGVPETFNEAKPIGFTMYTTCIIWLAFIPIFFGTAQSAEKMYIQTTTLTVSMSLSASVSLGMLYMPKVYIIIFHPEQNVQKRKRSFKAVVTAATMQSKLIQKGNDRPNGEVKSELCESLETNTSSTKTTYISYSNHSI

| Compound | z-score |
| --- | --- |
| Cc1nn(CCC(=O)O)c(C)c1C | -0.13 |
| O=C(Nc1ccc(S(=O)(=O)N2CCc3ccccc3C2)cc1)c1ccccc1 | 0.0396 |
| O=C(NCc1ccccc1Cl)c1cccc(NC(=O)c2ccccc2)c1 | -0.126 |
| N#C/C(=C\c1cc(Cl)ccc1O)C(=O)NC1CCCCC1 | -0.177 |
| Cc1ccc(C(=O)n2cnnc2N)cc1 | -0.81 |
| COc1ccc(C(=O)CSc2nnc(-c3cccs3)n2-c2ccccc2)cc1 | -0.159 |
| CCOC(=O)/C(C#N)=C/c1cc2ccc(C)cc2nc1Cl | -0.211 |
| O=C(Nc1ccccc1Br)C1CCN(C(=O)Cc2ccccc2)CC1 | -0.238 |
| Fc1ccc(NC(=S)Nc2ccc(F)c(Cl)c2)cc1Cl | -0.0109 |
| N#Cc1nc(-c2ccc(Cl)cc2)oc1NCCc1ccccn1 | 0.158 |
| CN(C)/N=C/c1cc(Cl)cc([N+](=O)[O-])c1O | 0.0575 |
| COC(=O)c1ccc(CSc2nnc(-c3c[nH]c4ccccc34)n2C)o1 | 0.445 |
| CCOC(=O)C1(S(=O)(=O)c2ccc(Cl)cc2)CCN(Cc2ccccc2)CC1 | 0.106 |
| O=C(NCc1ccc(F)cc1)c1ccc(N2CCc3ccccc32)c([N+](=O)[O-])c1 | 0.777 |
| N#CC1=C(N)n2c(s/c(=C\c3cccs3)c2=O)=C(C#N)C1c1cccs1 (stereo not drawn) | -0.507 |
| CC(C)CNS(=O)(=O)c1ccc(CCC(=O)NCc2ccco2)cc1 | -0.0382 |
| CCN1CCN(C(c2cccs2)C(C)NC(=O)c2ccccc2)CC1 (stereo not drawn) | 0.014 |
| Cc1ccc(O)c(C(=O)c2cc(C#N)c(=O)n(CC3CCCO3)c2)c1 (stereo not drawn) | -0.26 |
| CCOC(=O)C1CCN(C(=O)CC(C)c2ccccc2)CC1 (stereo not drawn) | 0.272 |
| COc1cc(-c2nn3c(-c4cccnc4)nnc3s2)cc(OC)c1OC | 0.0695 |
| COc1cccc(-n2nnnc2SCC(=O)Nc2nc3c(s2)CCCC3)c1 | 0.00301 |
| CC1=C(C(N)=O)C(c2ccccc2F)NC(=O)N1 (stereo not drawn) | 0.00558 |
| COc1cc(/C=C2\N=C3CCCCCN3C2=O)ccc1O | -0.0976 |
| CCc1cccc(C)c1NC(=O)CSc1ncn[nH]1 | -0.417 |
| Cc1ccccc1C(=O)N/N=C/c1ccc(OCC(=O)N2CCCCC2)cc1 | -0.178 |

| Compound | z-score |
| --- | --- |
| COc1cc(NC(=O)c2ccccc2)c(OC)cc1Cl | -0.449 |
| N#CC1=C(N)Oc2n[nH]c(-c3ccccn3)c2C1c1c(F)cccc1Cl (stereo not drawn) | -1.02 |
| O=C1c2ccc3c4c(ccc(c24)C(=O)N1c1ccc2ccccc2c1)CC3 | 0.233 |
| O=C(Cc1ccc(Cl)cc1)NNC(=O)c1cnccn1 | 0.185 |
| CC1=C(C(=O)Nc2ccccn2)C(c2ccc(F)cc2)n2ncnc2N1 (stereo not drawn) | 0.147 |
| COC(=O)c1cc(Br)ccc1-c1ccc(/C=N/n2nnnc2N)o1 | -0.559 |
| CCOC(=O)C1=C(C)C(c2ccccc2)NC(=S)N1 (stereo not drawn) | 0.0117 |
| CCOc1ccc(C(=O)NC(=S)Nc2ccc(N3CCC(C)CC3)cc2)cc1[N+](=O)[O-] | 0.955 |
| CCOC(=O)N1CCN(C(=O)c2ccc(OC)c(OC)c2)CC1 | 0.883 |
| CCOC(=O)c1ccc(NC(=O)CN(c2ccc(C)cc2)S(=O)(=O)c2c(C)nn(C)c2C)cc1 | 0.0534 |
| O=C(c1n[nH]c(=O)c2ccccc12)N1CCOCC1 | 0.339 |
| Cc1cc(C)cc(NC(=O)c2cc(Cl)sc2Cl)c1 | -0.258 |
| O=C(CCc1nc(-c2ccccc2)no1)NCc1cccnc1 | 0.315 |
| CC(NCC(O)COCc1cccs1)C1CC2CCC1C2 (stereo not drawn) | -0.0756 |
| Cc1ccsc1C(=O)c1sccc1C | 0.139 |
| O=C1c2[nH]nc(-c3ccccc3O)c2C(c2ccc(F)cc2)N1CC1CCCO1 (stereo not drawn) | 0.79 |
| CCc1nnc(NC(=O)c2c(O)c3c([nH]c2=O)CCCC3)s1 | -0.461 |
| CC(C)OCC1CC(CC(=O)NC(=S)Nc2cccc([N+](=O)[O-])c2)C(=O)O1 (stereo not drawn) | -0.273 |
| CC1(C)CC(OC(=O)c2ccccc2)CC(C)(C)N1 | 0.604 |
| Cc1cccc(NC(=O)CSc2nc3ccc(NC(=O)CSc4nnnn4-c4ccccc4)cc3s2)c1C | 0.181 |
| Clc1ccccc1Oc1cnc2ccccc2n1 | -0.184 |
| Cc1cc(-c2ccccc2C(=O)NCc2ccccc2)on1 | -0.0922 |
| O=C(N/N=C/CCc1ccccc1)c1ccccc1 | -0.78 |
| Cc1ccc(S(=O)(=O)N2CCCCC2C(=O)N2CCN(C)CC2)cc1 (stereo not drawn) | -0.0911 |
| CCOc1ccc(N2C(=O)CS/C2=N/NC(=O)COc2ccc3ccccc3c2)cc1 | 0.0846 |

| Compound | z-score |
| --- | --- |
| COC(=O)c1cc(NC(=O)CC2SCCNC2=O)cc(C(=O)OC)c1 (stereo not drawn) | -0.963 |
| O=C(CSc1nnnn1-c1ccc2c(c1)CCC2)NCc1cccs1 | -0.44 |
| CCNC(=O)CC1C(=O)N(c2ccccc2)C(=O)N1Cc1ccc(OC)cc1 (stereo not drawn) | 0.245 |
| Cc1nccn1-c1cc(C(C)(C)C)nc2c(-c3ccccc3)cnn12 | -0.158 |
| CCOC(=O)c1cnn(-c2nc(SC)nc3sc4c(c23)CCC4)c1N | 0.312 |
| CC(=O)C1=C(C)NC(SCc2cccc3ccccc23)=C(C#N)C1c1ccco1 (stereo not drawn) | 0.063 |
| CCc1ccc(-c2nc(CN3CCC(C(=O)N4CCN(c5ccccc5)CC4)CC3)c(C)o2)cc1 | 2.2 |
| CCCCNC(=O)Cc1ccc(C)cc1 | 0.122 |
| Cc1ccc(Oc2ncc(CN3CCOCC3)s2)cc1 | -0.0551 |
| C=CCN(CC=C)C(=S)NC(=O)/C=C/c1ccc(C)cc1 | active: 4.57 |
| Cc1nn(CCC(=O)NNC(=S)Nc2ccc(Cl)cc2)c(C)c1[N+](=O)[O-] | 0.148 |
| Cn1c(=O)n(C)c2cc(S(=O)(=O)NCCO)ccc21 | -0.0413 |
| O=C(c1ccccc1)c1ccccc1C(=O)N1CCCC1 | 0.333 |
| O=C(NCCCc1ccccc1)c1cnc2n(c1=O)CCS2 | 0.994 |
| CCOC(=O)C1C(=O)CC(C)(O)C(C(=O)OCC)C1c1ccc(C)s1 (stereo not drawn) | 0.256 |
| OCCN1CCN(CC(O)COc2ccc(Cl)cc2)CC1 (stereo not drawn) | 0.191 |
| Cc1ccc(C)c(NC(=O)CCc2ccc(S(=O)(=O)NC3CCCCC3)cc2)c1 | 0.128 |
| Cn1c(=O)c2c(nc(N3CCN(c4ccccn4)CC3)n2Cc2ccc(Cl)cc2Cl)n(C)c1=O | -0.0775 |
| O=C(NC1CCS(=O)(=O)C1)C1CCCCN1S(=O)(=O)c1ccc(Cl)cc1 (stereo not drawn) | 0.322 |
| COc1ccc(NC(=O)N(CCN2CCCC2)Cc2cc3cc(OC)c(OC)cc3[nH]c2=O)cc1 | 0.14 |
| O=C(Cc1c(Cl)cccc1Cl)NCCc1ccc(Cl)cc1 | -0.198 |
| Cc1cc(C)cc(NC(=O)c2ccc(Cn3nc(C)c(Cl)c3C)o2)c1 | -0.275 |
| CCC1(C)Cc2c(sc(NC(=S)NC(=O)c3ccccc3)c2C#N)CO1 (stereo not drawn) | 0.143 |
| Cc1ccc(-c2[nH]ncc2/C=C(\C#N)C(=O)NC2CCCCC2)cc1 | -2.27 |
| COc1ccc(/C=N/NC(=O)c2ccc(O)cc2O)cc1CSc1ccccn1 | -0.674 |

| Compound | z-score |
| --- | --- |
| Nc1cccc(Nc2nc(OC(C(F)(F)F)C(F)(F)F)nc(OC(C(F)(F)F)C(F)(F)F)n2)c1 | -0.288 |
| O=C(CCc1ccccc1)Nc1nc2ccc(S(=O)(=O)N3CCOCC3)cc2s1 | -0.335 |
| O=C(CCc1ccc(S(=O)(=O)NCCc2ccccc2)cc1)NCc1ccc2c(c1)OCO2 | -0.111 |
| Cc1ccc(C(=O)c2cc([N+](=O)[O-])ccc2N2CCN(C)CC2)cc1 | -0.247 |
| COC(=O)CSc1cc(C(=O)c2nccn2C)c2ccccc2n1 | -0.0661 |
| CC1=C(C(=O)N2CCN(C(=O)c3ccco3)CC2)C2(CCC(C)CC2)OC1=O (stereo not drawn) | -1.61 |
| Cc1cc(C)c(S(N)(=O)=O)c(C)c1-n1cnnn1 | -0.382 |
| CCCn1nnnc1NC(=O)COc1ccc(Cl)cc1C | -0.772 |
| Cc1ccc(C(=O)Nc2nc(C)c(C)s2)o1 | -0.198 |
| Cc1ccc(S(=O)(=O)CC(O)CN2CCCC2=O)cc1 (stereo not drawn) | -0.0995 |
| CCc1nnc(NC(=O)CCC(=O)NCc2ccccc2OC)s1 | -0.0821 |
| CCOc1cc(C(=O)Nc2ccon2)cc(OCC)c1OCC | -0.616 |
| O=C(Nc1c(C(=O)C2CC2)oc2ccccc12)c1ccc(Cl)cc1 | -0.287 |
| CCN(CC)C(=O)CSc1nnc(COc2ccccc2)n1CC | -0.156 |
| CCc1cc2c(NCC3CCCO3)ncnc2s1 (stereo not drawn) | 0.0777 |
| COCCN(C(=O)COc1ccccc1)c1nnc(-c2cccnc2)s1 | -0.132 |
| COc1cccc(S(=O)(=O)NCc2ccc(C(=O)NCc3ccco3)cc2)c1 | -0.517 |
| O=C(COC(=O)c1cc(-c2cccs2)nn1-c1ccccc1)Nc1ccc(Cl)c([N+](=O)[O-])c1 | 0.0111 |
| Cc1ccc(C)c(N2CCN(C(=O)C3CCCN(S(=O)(=O)c4cnc[nH]4)C3)CC2)c1 (stereo not drawn) | -0.0761 |
| Nc1nnc(-c2ccc(F)cc2)s1 | 1.68 |
| CCC(C)n1cnc2c(c1=O)c1nc3ccccc3nc1n2Cc1ccc2c(c1)OCO2 (stereo not drawn) | -0.195 |
| O=C(c1cccc(-n2cnnn2)c1)N1CCOCC1 | -0.145 |
| COCC(=O)NC1CCN(C(=O)NCc2ccccc2)CC1 | -0.215 |
| COc1ccc(NC(=O)CN(C)S(=O)(=O)c2cccc3cccnc23)cc1 | -0.226 |
| C/C(Cl)=C/CSc1nnc2n(N)c(=O)c3ccccc3n12 | -1.04 |

| Compound | z-score |
| --- | --- |
| Cc1ccc(OCc2ccc(C(=O)Nc3nc4ccccc4n3C)o2)c([N+](=O)[O-])c1 | -0.373 |
| O=C1C(=O)N(c2cccc(Cl)c2)C(c2ccccc2[N+](=O)[O-])/C1=C(\O)c1ccccc1 (stereo not drawn) | -0.745 |
| O=C(O)CCc1ncc(C(F)(F)F)cc1Cl | -0.0945 |
| Cc1ccccc1S(=O)(=O)Cc1ccc(C(=O)N2CC(C)CC(C)C2)o1 (stereo not drawn) | -0.255 |
| CCOC(=O)C1CCCN(C(=O)CNS(=O)(=O)c2ccc(Br)s2)C1 (stereo not drawn) | 0.0342 |
| CC1=C(C(=O)Nc2ccccc2)C(c2ccco2)NC(=S)N1 (stereo not drawn) | -0.04 |
| COC(=O)c1ccc(C(=O)OCc2nc3cc4ccccc4cc3[nH]2)cc1 | -0.13 |
| O=C(COc1ccc(S(=O)(=O)NC2CCCCC2)cc1)NC1CCCCC1 | -0.031 |
| CCOc1ccc(S(=O)(=O)Nc2ccc(Cl)cn2)c(C)c1C | -0.393 |
| COc1ccc(-c2nc3ccccn3c2/N=C/c2ccc(OC)c(OC)c2)cc1O | -0.937 |
| COc1ccccc1NC(=O)Nc1ccc2c(c1)OCCO2 | 1.1 |
| COc1cc(NC(=S)NCc2ccco2)cc(OC)c1OC | -0.163 |
| CCn1nc(CC(=O)Nc2ccc(-n3cnnn3)c(C)c2)c2ccccc2c1=O | 0.00631 |
| CC(=O)Nc1ccccc1C(=O)C(=O)Nc1ccccc1 | -0.164 |
| COc1cccc(N(CC(=O)NCc2cccnc2)S(C)(=O)=O)c1 | active: 3.97 |
| Cc1sc2ncn(CC(=O)OC(C)C)c(=O)c2c1C | -0.0843 |
| CCN1/C(=C/C(C)=O)Sc2ccc(OC)cc21 | 0.45 |
| COC(=O)c1cccc(NC(=O)c2ccco2)c1 | -0.0291 |
| NNC(=O)c1ccc(COc2ccccc2)cc1 | -0.142 |
| O=C(c1ccc(Cl)c(S(=O)(=O)N2CCOCC2)c1)N1CCN(Cc2ccccc2)CC1 | -0.079 |
| Cc1nnc(SCC(=O)Nc2ccc(Br)cn2)[nH]c1=O | 0.0159 |
| CN(C)S(=O)(=O)c1cccc(C(=O)Nc2cc(Cl)cc(Cl)c2)c1 | -0.468 |
| O=C(Nc1cnn(C23CC4CC(CC(C4)C2)C3)c1)c1cc(-c2ccccc2)on1 | 0.107 |
